Experimental findings from the supplement of paper PMC12462457 are described below.

SMILES strings stand for the structures. Structures can show the parent of a compound that is named as a salt. ± gives the standard deviation of the averaged measurements. Some of the results follow.

For this assay, the system named is OVCAR8. As to the kind of experiment: cell count relative to DMSO vehicle (fold change); OVCAR8 is a high-grade serous ovarian cancer line and CX-5461 an RNA polymerase I inhibitor; higher = more surviving senescent cells (less killing). Particulars: senescence inducer: CX-5461 3 µM 48 h, then 6 d recovery (CX senescent), exposure time 24 h.

With `CCCCCCCC/C=C1\C=C(C(F)(F)F)c2cc(O)c(O)cc21`, the cell count was 0.606 ± 0.36 (compound dose 1 µM) and 0.0595 ± 0.077 (compound dose 5 µM).
Turning to `O=C(c1cc(-c2cc3c(cc2C(=O)N2Cc4ccccc4C[C@H]2CN2CCOCC2)OCO3)n2c1CCCC2)N(c1ccccc1)c1ccc(O)cc1`, the cell count was found to be 1.13 ± 0.035 (compound dose 1 µM) and 0.832 ± 0.27 (compound dose 5 µM).
With `CNC(=O)c1ccccc1Nc1nc(Nc2ccc(N3CCOCC3)cc2OC)ncc1Cl`, the cell count was determined as 1.23 ± 0.042 (compound dose 1 µM) and 1.1 ± 0.18 (compound dose 5 µM).
Take `CCCn1/c(=N/C(=O)c2cccc(C(N)=O)c2)[nH]c2ccccc21` [Takinib]: the cell count came to 1.14 ± 0.22 (compound dose 1 µM) and 1.16 ± 0.26 (compound dose 5 µM).
As to `CCOC(=O)C1=C(C)NC(C)=C(C(=O)OCC)C1c1ccccc1/C=C/C(=O)OC(C)(C)C` [Lacidipine], the cell count stood at 1.07 ± 0.29 (compound dose 1 µM) and 1.12 ± 0.29 (compound dose 5 µM).
Turning to `O=S(=O)(c1ccccc1)N(CC(F)(F)F)c1ccc(C(O)(C(F)(F)F)C(F)(F)F)cc1`, the cell count by setting is: (compound dose 1 µM) 1.05 ± 0.29; (compound dose 5 µM) 1.07 ± 0.4.
For `Cc1nc2cccc(N)c2c(=O)n1C1CCC(=O)NC1=O` (configuration not stated) [Avadomide], the cell count came out at 1.07 ± 0.13 (compound dose 1 µM) and 1.07 ± 0.14 (compound dose 5 µM).
Turning to `CS(=O)(=O)N1CCN(Cc2cc3nc(-c4cccc5[nH]ncc45)nc(N4CCOCC4)c3s2)CC1` [Pictilisib (GDC-0941)], the cell count is, setting by setting: (compound dose 1 µM) 1.12 ± 0.027; (compound dose 5 µM) 1.04 ± 0.04.
Consider `Cc1cc(N2CCOCC2)cc2[nH]c(-c3c(NC[C@@H](O)c4cccc(Cl)c4)cc[nH]c3=O)nc12`, for which the cell count is, setting by setting: (compound dose 1 µM) 0.825 ± 0.21; (compound dose 5 µM) 0.942 ± 0.34.
Turning to `Cc1cc(O)c(C(=O)CCC(C)C)c(=O)o1` [Pogostone], the cell count was determined as 1.02 ± 0.24 (compound dose 1 µM) and 1.05 ± 0.088 (compound dose 5 µM).
Turning to `Nc1nc2c(ncn2COCCO)c(=O)[nH]1`, the cell count by setting is: (compound dose 1 µM) 1.12 ± 0.11; (compound dose 5 µM) 1.02 ± 0.032.
For the compound `CC1(C)SCCN(S(=O)(=O)c2ccc(OCC#CCO)cc2)[C@H]1C(=O)NO` [Apratastat], the cell count by setting is: (compound dose 1 µM) 0.507 ± 0.14; (compound dose 5 µM) 0.436 ± 0.12.
The matching figures for `CC1(C)C2=CCCC(C)(C)[C@]23CC[C@H]1C3` [Isolongifolene]: 1.01 ± 0.031 and 1.07 ± 0.042.
The matching figures for `COc1ccc(C(=O)CC(=O)c2ccc(C(C)(C)C)cc2)cc1`: 1.18 ± 0.086 and 1.08 ± 0.1.
For the compound `CC(C)(C)c1ccc(C(=O)NC(=S)Nc2ccc(N)cc2)cc1` [Tenovin-3], the cell count came out at 1.01 ± 0.11 (compound dose 1 µM) and 0.988 ± 0.12 (compound dose 5 µM).
Turning to `COc1ccc(C(=O)c2ccccc2)c(O)c1`, the cell count runs as follows: (compound dose 1 µM) 1.06 ± 0.046; (compound dose 5 µM) 1.11 ± 0.23.
For the compound `O=C1NCCc2[nH]c(-c3ccncc3)cc21`, the cell count by setting is: (compound dose 1 µM) 0.749 ± 0.054; (compound dose 5 µM) 0.366 ± 0.049.
The matching figures for `Cc1ccc(NC(=O)c2cccc(N(C)C)c2)cc1NC(=O)c1ccc(O)cc1`: 1.16 ± 0.042 and 1.11 ± 0.14.
For `CCCCOc1ccc(CC/C=C2\SC(=O)N(CCN)C2=O)cc1` [K145 (hydrochloride)], the cell count (compound dose 1 µM) was found to be 1.13 ± 0.24 and the cell count (compound dose 5 µM) is 1.11 ± 0.028.
On to `O=C(CCCCCCC(=O)Nc1ccccc1)NO`, for which the cell count is, setting by setting: (compound dose 1 µM) 1.13 ± 0.12; (compound dose 5 µM) 0.739 ± 0.033.
Consider `O=C(/C=C/c1ccc(O)c(O)c1)c1ccc(O)cc1O` [Butein], for which the cell count by setting is: (compound dose 1 µM) 1.26 ± 0.057; (compound dose 5 µM) 1.294 ± 0.0092.
The matching figures for `COc1cc2/c(=N/c3ccc(Br)cc3F)nc[nH]c2cc1OCC1CCN(C)CC1` [Vandetanib]: 0.995 ± 0.086 and 0.75 ± 0.019.
Take `COc1ccc(CN(C(=O)Cc2cccs2)c2cc(OC)c(OC)c(OC)c2)cc1`: the cell count reads like this: (compound dose 1 µM) 1.21 ± 0.034; (compound dose 5 µM) 1 ± 0.17.
The matching figures for `O=C(CCCCCN1C(=O)c2cccc3cccc(c23)C1=O)NO` [Scriptaid]: 1.2 ± 0.17 and 0.871 ± 0.17.
As for `CCN(CC)C(=S)SSC(=S)N(CC)CC`, the cell count by setting is: (compound dose 1 µM) 0.98 ± 0.044; (compound dose 5 µM) 0.676 ± 0.078.
The matching figures for `O=C(O)c1cc(=O)cc(C(=O)O)o1` [Chelidonic acid]: 1.06 ± 0.056 and 1.1 ± 0.14.
The matching figures for `NC(N)=NC(=O)c1nc(Cl)c(N2CCCCCC2)nc1N` [5-(N,N-Hexamethylene)-amiloride]: 0.707 ± 0.051 and 0.498 ± 0.054.
As to `C[C@H](CCC(=O)NCC(=O)O)[C@H]1CC[C@H]2[C@@H]3[C@H](O)C[C@@H]4C[C@H](O)CC[C@]4(C)[C@H]3CC[C@]12C` [Glycochenodeoxycholic acid (sodium salt)], the cell count by setting is: (compound dose 1 µM) 1.07 ± 0.11; (compound dose 5 µM) 1.1 ± 0.2.
The matching figures for `C[C@H](CCC(=O)NCC(=O)O)[C@H]1CC[C@H]2[C@@H]3[C@H](O)C[C@@H]4C[C@H](O)CC[C@]4(C)[C@H]3CC[C@]12C` [Glycochenodeoxycholic acid]: 1.03 ± 0.13 and 1.08 ± 0.13.
The matching figures for `CC(C)(C)C(=O)N1N=CC[C@H]1c1ccccc1`: 1.02 ± 0.13 and 0.944 ± 0.089.
The matching figures for `COc1cc(N2CCC(N)CC2)ccc1Nc1ncc(Cl)c(-c2c[nH]c3ccccc23)n1`: 0.95 ± 0.058 and 0.431 ± 0.1.
`Nc1[nH]nc2nnc(-c3c(-c4ccccc4)nn4ccccc34)cc12`: the cell count was found to be 1.05 ± 0.089 (compound dose 1 µM) and 1.06 ± 0.091 (compound dose 5 µM).
Regarding `Cc1cccc(CC(=O)N2CCc3c2ccc(-c2cn(C)c4ncnc(N)c24)c3F)n1`, the cell count by setting is: (compound dose 1 µM) 1.04 ± 0.28; (compound dose 5 µM) 0.945 ± 0.23.
The matching figures for `O=c1c(O[C@@H]2O[C@H](CO)[C@H](O)[C@H](O)[C@H]2O)c(-c2ccc(O)c(O)c2)oc2cc(O)cc(O)c12` [Hyperoside]: 1.3 ± 0.23 and 1.07 ± 0.057.
`CCn1c2ccccc2c2cc(CNCc3ccccc3OC)ccc21`: the cell count reads like this: (compound dose 1 µM) 1.16 ± 0.016; (compound dose 5 µM) 1.12 ± 0.033.
As to `COCCOc1cc2nccc(Nc3n[nH]c(C)c3C)c2cc1S(=O)(=O)C(C)(C)C` [RIP2 kinase inhibitor 2], the cell count reads like this: (compound dose 1 µM) 1.12 ± 0.2; (compound dose 5 µM) 0.941 ± 0.34.
